The supplement of paper PMC11741623
The list shows a part of the results. Interaction screen of human proteins with wild-type SARS-CoV-2 proteins by split-DHFR complementation in yeast, 1 µg/mL methotrexate. Value = fitness of the pair (three or more lineages) minus that of the viral protein without a human partner, on a scale set by negative (0) and fused positive (1) controls, mean of up to three cultures; higher = more likely to interact. Active = false discovery rate below 0.05 (one-sided t-test) in at least one culture. Nearly all pairs are not hits, and differences among them are mostly noise (correlation between cultures about 0.3); most hits were seen in one culture only. Human sequences are the Swiss-Prot entries looked up by gene name; the clone may be another isoform. NSP2 values were corrected by the authors for a growth advantage. Listed are human proteins with a hit and a random twelfth of the others.

B1: PELI1, Q96FA3 (protein)
chain: MFSPDQENHPSKAPVKYGELIVLGYNGSLPNGDRGRRKSRFALFKRPKANGVKPSTVHIACTPQAAKAISNKDQHSISYTLSRAQTVVVEYTHDSNTDMFQIGRSTESPIDFVVTDTVPGSQSNSDTQSVQSTISRFACRIICERNPPFTARIYAAGFDSSKNIFLGEKAAKWKTSDGQMDGLTTNGVLVMHPRNGFTEDSKPGIWREISVCGNVFSLRETRSAQQRGKMVEIETNQLQDGSLIDLCGATLLWRTAEGLSHTPTVKHLEALRQEINAARPQCPVGFNTLAFPSMKRKDVVDEKQPWVYLNCGHVHGYHNWGNKEERDGKDRECPMCRSVGPYVPLWLGCEAGFYVDAGPPTHAFSPCGHVCSEKTTAYWSQIPLPHGTHTFHAACPFCAHQLAGEQGYIRLIFQGPLD
B2: IER3IP1, Q9Y5U9 (protein)
chain: MAFTLYSLLQAALLCVNAIAVLHEERFLKNIGWGTDQGIGGFGEEPGIKSQLMNLIRSVRTVMRVPLIIVNSIAIVLLLLFG
B3: EPYC, Q99645 (protein)
chain: MKTLAGLVLGLVIFDAAVTAPTLESINYDSETYDATLEDLDNLYNYENIPVDKVEIEIATVMPSGNRELLTPPPQPEKAQEEEEEEESTPRLIDGSSPQEPEFTGVLGPHTNEDFPTCLLCTCISTTVYCDDHELDAIPPLPKNTAYFYSRFNRIKKINKNDFASLSDLKRIDLTSNLISEIDEDAFRKLPQLRELVLRDNKIRQLPELPTTLTFIDISNNRLGRKGIKQEAFKDMYDLHHLYLTDNNLDHIPLPLPENLRALHLQNNNILEMHEDTFCNVKNLTYIRKALEDIRLDGNPINLSKTPQAYMCLPRLPVGSLV
B4: MS4A12, Q9NXJ0 (protein)
chain: MMSSKPTSHAEVNETIPNPYPPSSFMAPGFQQPLGSINLENQAQGAQRAQPYGITSPGIFASSQPGQGNIQMINPSVGTAVMNFKEEAKALGVIQIMVGLMHIGFGIVLCLISFSFREVLGFASTAVIGGYPFWGGLSFIISGSLSVSASKELSRCLVKGSLGMNIVSSILAFIGVILLLVDMCINGVAGQDYWAVLSGKGISATLMIFSLLEFFVACATAHFANQANTTTNMSVLVIPNMYESNPVTPASSSAPPRCNNYSANAPK
B5: TXNDC8, Q6A555 (protein)
chain: MVQIIKDTNEFKTFLTAAGHKLAVVQFSSKRCGPCKRMFPVFHAMSVKYQNVFFANVDVNNSPELAETCHIKTIPTFQMFKKSQKVTLFSRIKRIICCYRSGFMSNLIFEFCGADAKKLEAKTQELM

molecular target: SARS-CoV-2 NSP10; experiment: yeast fitness gain over the viral ORF with no human partner (scaled fitness); higher = more likely to interact
Procedure: (§1)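 Split mouse DHFR complementation in pooled diploid yeast: human ORFeome clones carry one fragment and viral ORFs the other; barcoded lineages compete in 1 µg/mL methotrexate and fitness is read by barcode sequencing in up to three cultures.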

Binder	yeast fitness gain
B1	inactive: 0.0291
B2	inactive: 0.018
B3	inactive: 0.0729
B4	inactive: 0.0772
B5	inactive: -0.0254

molecular target: SARS-CoV-2 NSP12; experiment: as above
Procedure: as §1

Binder	yeast fitness gain
B1	inactive: 0.12
B2	inactive: -0.197
B3	inactive: -0.0382
B4	inactive: 0.0178
B5	inactive: 0.108

molecular target: SARS-CoV-2 NSP13; experiment: as above
Procedure: as §1

Binder	yeast fitness gain
B1	inactive: -0.089
B2	inactive: 0.0337
B3	inactive: -0.108
B4	inactive: 0.0438
B5	inactive: -0.0978

molecular target: SARS-CoV-2 NSP14; experiment: as above
Procedure: as §1

Binder	yeast fitness gain
B1	inactive: 0.291

molecular target: SARS-CoV-2 NSP2; experiment: as above
Procedure: as §1

Binder	yeast fitness gain
B1	inactive: 0.0928
B2	inactive: -0.0599
B3	inactive: -0.18
B4	inactive: -0.117
B5	inactive: -0.153

molecular target: SARS-CoV-2 NSP4; experiment: as above
Procedure: as §1

Binder	yeast fitness gain
B1	inactive: -0.152
B4	inactive: 0.251

molecular target: SARS-CoV-2 NSP5; experiment: as above
Procedure: as §1

Binder	yeast fitness gain
B1	inactive: -0.0146
B2	inactive: 0.00162
B3	inactive: -0.00781
B4	inactive: 0.0395

molecular target: SARS-CoV-2 NSP6; experiment: as above
Procedure: as §1

Binder	yeast fitness gain
B1	inactive: -0.00393
B4	inactive: 0.0843

molecular target: SARS-CoV-2 NSP9; experiment: as above
Procedure: as §1

Binder	yeast fitness gain
B1	inactive: 0.0849
B2	inactive: 0.0413
B3	inactive: 0.132

molecular target: SARS-CoV-2 ORF10; experiment: as above
Procedure: as §1

Binder	yeast fitness gain
B1	inactive: -0.0502
B4	inactive: -0.0964
B5	inactive: 0.017

molecular target: SARS-CoV-2 ORF3B; experiment: as above
Procedure: as §1

Binder	yeast fitness gain
B1	inactive: -0.0121
B2	inactive: -0.133
B3	inactive: 0.0144
B4	inactive: -0.0498
B5	inactive: -0.00748

molecular target: SARS-CoV-2 ORF6; experiment: as above
Procedure: as §1

Binder	yeast fitness gain
B1	inactive: 0.036
B2	inactive: -0.0773
B3	inactive: 0.0173
B4	inactive: -0.0697
B5	inactive: -0.0323

molecular target: SARS-CoV-2 ORF7B; experiment: as above
Procedure: as §1

Binder	yeast fitness gain
B1	inactive: 0.0407
B2	inactive: 0.0438
B4	inactive: 0.0415

molecular target: SARS-CoV-2 ORF8; experiment: as above
Procedure: as §1

Binder	yeast fitness gain
B1	inactive: 0.0147
B2	inactive: 0.065
B4	inactive: -0.0234
B5	inactive: -0.162

molecular target: SARS-CoV-2 ORF9B; experiment: as above
Procedure: as §1

Binder	yeast fitness gain
B1	inactive: 0.00484
B2	inactive: -0.135
B3	inactive: -0.00986
B4	inactive: -0.0319
B5	inactive: -0.00137

molecular target: SARS-CoV-2 NSP15; experiment: as above
Procedure: as §1

Binder	yeast fitness gain
B2	inactive: -0.0591
B4	inactive: -0.0106

molecular target: SARS-CoV-2 NSP7; experiment: as above
Procedure: as §1

Binder	yeast fitness gain
B2	inactive: -0.0281
B4	inactive: -0.0179

molecular target: SARS-CoV-2 ORF9Bwu (the 73-codon ORF); experiment: as above
Procedure: as §1

Binder	yeast fitness gain
B2	inactive: -0.00962
B4	inactive: 0.00714
B5	inactive: 0.00282

molecular target: SARS-CoV-2 ORF7A; experiment: as above
Procedure: as §1

Binder	yeast fitness gain
B3	inactive: -0.0414
B4	inactive: -0.00571

molecular target: SARS-CoV-2 NSP16; experiment: as above
Procedure: as §1

Binder	yeast fitness gain
B4	inactive: 0.0034

molecular target: SARS-CoV-2 NSP8; experiment: as above
Procedure: as §1

Binder	yeast fitness gain
B4	inactive: -0.0477

molecular target: SARS-CoV-2 S; experiment: as above
Procedure: as §1

Binder	yeast fitness gain
B4	inactive: 0.0275
B5	inactive: 0.0871
